# Test results from ChEMBL document CHEMBL4888484, “Replenishing the malaria drug discovery pipeline: Screening and hit evaluation of the MMV Hit Generation Library 1 (HGL1) against asexual blood stage Plasmodium falciparum ,using a nano luciferase reporter read-out” (2022).
# Screen size: about 150,000 compounds; about 540 (0.36%) showed an effect of 50% or more. The list shows a part of the results.
# Tested on: Plasmodium falciparum
# Experiment: Primary screen in NF54 nanoGlo assay, in single point, at 2uM, 72h; a lower Z score goes with more inhibition
# Type: functional, Erythrocyte
# Conditions: timepoint 72 hour
Structure (SMILES),% Inhibition,Z score
O=C(Nc1ccccc1)[C@H]1CCc2nc(N3CCCC3)ncc2C1,-14%,2.67
Cc1cc(F)ccc1N1CCC[C@H](NC(=O)c2ccc[nH]2)C1=O,-6%,1.2
COc1cc(NC(=O)c2sc(Nc3cc(C)ccn3)nc2C)cc(OC)c1OC,-6%,0.93
COc1ccc(CNC(=O)CCc2nnc3c4cc(-c5cc(C)ccc5C)nn4ccn23)cc1,0%,0.01
CC1CCN(C(=O)NCc2ccc(-n3cncn3)nc2)CC1,-3%,0.54
CC(NS(C)(=O)=O)C(=O)NC1CCN(c2ccc(F)c(Cl)c2)C1 (configuration not stated),-6%,0.73
O=C(Nc1nnn[nH]1)C1CC1c1ccccc1OC(F)(F)F (configuration not stated),-9%,1.32
C[C@@]1(C(=O)N2CC(S(C)(=O)=O)C2)CC=CCC1,-10%,1.79
CCc1cc(Nc2ccc3ccccc3c2)n2nc(-c3cccnc3)nc2n1,19%,-3.07
O=S1(=O)CCC[C@H](CS(=O)(=O)N2CCc3cc(Cl)ccc32)C1,12%,-1.46
O=C1CCCN1C[C@H]1CCCN(c2ncnc3c2Cc2ccccc2OC3)C1,-14%,2.61
CC[C@H](C)N(CC(=O)OC(C)(C)C)Cc1cc(C)on1,-11%,1
CCc1ncsc1NS(=O)(=O)c1ccc(OCC(F)F)cc1,-18%,2.02
Cc1nn(C)c2nc(-c3ccncc3)nc(N(C)Cc3cc(C4CC4)[nH]n3)c12,1%,-0.25
COc1cccc([C@H](CN2CCN(S(=O)(=O)c3cc(F)cc(F)c3)CC2)OCc2ccc(C)cc2)c1,-3%,0.56
CC(C)[C@H](Nc1ccc2c(c1)C(=O)NCC2)c1ccc(F)cn1,-6%,1.21
CCc1ccc(C(=O)NCC(C)(C)N2CC(C)CC(C)C2)cc1S(=O)(=O)N1CCOCC1 (configuration not stated),-13%,1.54
COc1cc(F)ccc1S(=O)(=O)N1CCN(Cc2c(-c3ccc(Cl)cc3)nc3ccc(-c4ccccc4)cn23)CC1,-3%,0.63
Cc1ncoc1C(=O)N1CC(C)(C)[C@@](C)(O)C1,-13%,1.15
Oc1cccc(CN(C[C@H]2CCC=CO2)C2CCC(O)CC2)c1 (some centres not stated),1%,-0.12
Cc1ccccc1C1(NC(=O)c2cc(Cl)c[nH]c2=O)CC1,10%,-1.36

Structure (SMILES),% Inhibition,Z score
CC1CCC(NC(=O)CN2CCN(Cc3cccc(Cl)c3)C2=O)CC1 (configuration not stated),29%,-3.97
O=C1CCCN1c1ccc(-c2csc(-c3cnccn3)n2)cc1,-22%,3.36
Cc1nc[nH]c1CN1CCC2(CC1)C[C@@H](c1ccccc1)C(=O)N(C1CC1)C2,-5%,0.58
Nc1ccc(C(=O)N2CCC(n3cc(Cc4ccccc4)nn3)CC2)cn1,-14%,1.79
COC(=O)[C@H](Cc1ccc(OC)cc1)NC(=O)[C@H]1CN(C(=O)Nc2ccccc2)CCN1C(=O)NC(C)C,3%,-0.42
O=C(NCC1CCCCC1)c1ccc(CN2C(=O)NC3(CCS(=O)(=O)CC3)C2=O)cc1,-13%,1.49
O=C(C[C@@H]1C[C@H]2O[C@H](CNC(=O)NCc3ccccc3)[C@@H](O)[C@H]2O1)NC1CC1,-4%,0.57
CCCn1cc(C(=O)N(C)C[C@H]2CCCCO2)c(C)n1,-7%,0.96
Cc1cccc(C(=O)N(Cc2cc(NC(=O)c3cccs3)ccc2N(C)C)[C@@H](C)C(C)C)c1,5%,-0.82
O=C(Nc1ccn(Cc2cccnc2)n1)c1ccc(-c2ccccc2F)o1,36%,-4.82
CCc1ccc(-c2nc(C)no2)cc1S(C)(=O)=O,-3%,0.59
O=C(Nc1ccccn1)[C@@H]1CCC(=O)N1C(=O)OCc1ccccc1,-1%,0.11
N#CCCN(CCC#N)Cc1cc(F)cc(Br)c1,-9%,0.99
Cc1cc(C)c(C#N)c(-c2cccc(C(=O)NCCc3n[nH]c(=O)n3C)c2)n1,-8%,0.86
N[C@H]1[C@H](O)[C@@H](N2CCC(Cc3ccccc3)CC2)[C@@H]2OC[C@H]1O2,-5%,0.7
Cc1cc(C(=O)N2CCS(=O)(=O)CC2)sc1-c1ccccc1,-1%,0.25
COc1ccc(CN(C(=O)c2cc(-c3ccccc3)on2)[C@H]2CCS(=O)(=O)C2)cc1OC,-1%,0.17
CCn1ncc(CN2C3CCC2Cn2c(C)nnc2C3)c1C (configuration not stated),-12%,1.61
Cc1ccc(CN(C)C(=O)Nc2cccc(N3CCCC3=O)c2)nc1,-15%,1.6
C#CCCCCNC(=O)OCc1ccccc1,-7%,1.01
Cn1cc(Cl)c(CNC(=O)NC[C@H]2CCOC2)n1,0%,0.01

Structure (SMILES),% Inhibition,Z score
CS(=O)(=O)NCC1CCOC1c1ccccc1 (configuration not stated),-9%,1.24
COCC1(C(=O)N2C[C@H](OC)[C@@H](O)C2)CCC1,-8%,1.09
COc1ccccc1NC(=O)c1[nH]c2cc(C)sc2c1CN1CCOCC1,4%,-0.43
O=C(NCC(F)(F)c1ccccc1)N1CCC2(CCC2)S(=O)(=O)CC1,-1%,0.08
COCC1(CNC(=O)c2cc(F)ccc2O)CCC1,-24%,2.58
CC1CCCN(C(=O)Cc2csc(-c3ccoc3)n2)C1CN (configuration not stated),1%,-0.11
Cc1cc(C(=O)NCc2ccc(N3CCOCC3)cc2)ccc1N(C)S(C)(=O)=O,7%,-0.9
O=C(NCC1CCN(c2cc(-c3ccc(F)cc3)n[nH]2)CC1)c1n[nH]c2c1CCCC2,-18%,1.86
Cc1cc(N2C(=O)CN(Cc3cccc(Br)c3)C2=O)no1,24%,-2.66
CC(C)[C@H](N)C(=O)NC[C@H](CC(=O)NC[C@H]1CC[C@H](C(=O)O)CC1)c1ccc(Cl)cc1,-12%,2.18
O=C(N1CCCCC1)[C@@]1(CCO)CC12CCOCC2,11%,-2.11
Cc1nn(C)c(Cl)c1CNCc1ccc(N2CCCC2=O)cc1,-5%,0.6
Cn1ccnc1CN1C[C@@H]2C[C@H]1C(=O)NC[C@H]1O[C@H](CCOc3cc(-c4ccncc4)ccc3C(=O)N2)CC[C@@H]1O,-9%,1.36
Cc1cc(C)n(CC(=O)NC[C@H]2CCCN(C(=O)c3cc4ncccn4n3)C2)n1,17%,-2.13
c1ccc(-c2cn3nc(N4CCOCC4)sc3n2)cc1,-13%,1.88
CC[C@H](OC(=O)c1ccc(F)c(NC(C)=O)c1)C(C)(C)c1ccccc1,3%,-0.41
O=C(Cc1cn(Cc2ccc(F)cc2)c2ccccc12)N1CCN(C(=O)c2ccco2)CC1,-11%,1.27
O=S1(=O)C[C@H](N2CCCCC2)[C@@H](S(=O)(=O)c2cccs2)C1,7%,-0.81
Cc1nc(C)n(CCCn2cc(-c3ccc(CO)o3)nn2)n1,-7%,1.08
O=C(NC1CCN(Cc2ccccc2)CC1)[C@H]1CCc2ncc(-c3ccsc3)n2C1,-5%,1.01
O=C(NCCc1cncnc1)c1ccc(Oc2ccccc2)cc1,3%,-0.38

Structure (SMILES),% Inhibition,Z score
CN(C[C@H]1CCCO1)C(=O)c1c[nH]c(=O)n(C)c1=O,26%,-2.96
O=C(NC[C@H]1CCCO1)c1ccc(CN2CCN(c3ccccc3F)CC2)o1,-10%,1.13
O=C(NCc1ccco1)Nc1cccnc1,-3%,0.62
O=C(Nc1ccccc1N1CCCC1)N[C@H](CCO)c1ccccc1,0%,0.03
Cc1cccnc1CN[C@@H](C)c1ccc(F)cc1OC(F)F,-5%,0.46
CCN(CC)Cc1cnc2c(C(=O)N3CCN(C)[C@@H](C)C3)cnn2c1,-15%,2.78
C#CCN1CCN(C(=O)CNc2ccc(CC(=O)N(C)C)cc2)CC1,32%,-3.57
Cc1ccc(NC(=O)Cn2nc(N3CCCCCC3)c3ccccc3c2=O)c(Cl)c1,-8%,1.27
Cc1cn(C2CCCCC2)nc1NC(=O)NCc1nnn(C(C)(C)C)n1,-12%,1.56
C[C@H](NS(=O)(=O)CC1CCCCC1)c1ccc(S(C)(=O)=O)cc1,0%,-0.05
COc1ccc([C@H](C)NCCC(=O)N(C)C)c(Br)c1,-1%,0.13
O=C(N[C@@H]1CN(C(=O)C2CCC2)CC[C@@H]1CO)c1cccnc1,-8%,1.07
COc1ccccc1CNc1ccc(C(=O)NCCCN2CCCC2=O)cc1S(=O)(=O)Nc1cccc(C(F)(F)F)c1,-6%,0.73
Brc1ccc(Cc2nc(Cn3ccnn3)no2)cc1,-1%,0.08
COc1ccc2[nH]nc(NC(=O)CC[C@H]3CCC(=O)N3)c2c1,7%,-1.25
COC(=O)[C@@H](NCc1cccc(C#N)c1)C(C)(C)C,3%,-0.44
Cc1ncsc1C(=O)N1CCC2(CCCCC2)C1,37%,-5.42
NC(=O)c1csc(CN2CCc3cc(F)ccc3C2)c1,-1%,0.1
